Hit rate of the full screen: of about 52,000 compounds, about 1,700 (3.3%) were called active. Rule as the data show it: active = survival mostly below about 52% (no sharp cut-off); inactive = mostly above about 56%. The list shows a part of the results.
system: Wild type; assay: S. aureus survival, RN4220 and DeltatarO strains – OD600, teichoic acid synthesis inhibitors, primary screen (AID 463173); details: S. aureus RN4220 wild type/DeltatarO growth, OD600, 18 h, hits give low values, screened at 18.75 µg/mL (by protocol)

SMILES | survival
Cc1ccccc1OCc1ccc(-c2nc(C#N)c(N3CCN(c4ccccc4)CC3)o2)o1 | inactive: 124%
CC(=O)Nc1ccc(/C(C)=N/NC2=NCCN2)cc1Br | inactive: 103%
CCOc1ccc(CNC(=O)c2ccc(NC(=O)N3CCSc4ncccc43)cc2)cc1OC | inactive: 56%
COc1cccc(Cn2c(C)c(CNCc3ccccc3Cl)c(C(=O)O)c2C)c1 | inactive: 79%
CN(C)c1cc2c(cc1NC(=O)c1ccc(F)cc1)n(C)c(=O)n2C | inactive: 106%
CCc1ccc(-c2cc(C)no2)cc1S(=O)(=O)Nc1ccc(C)cn1 | active: 14%
CC(C)CCNC(=O)C1CCN(S(=O)(=O)c2cccc3nsnc23)CC1 | inactive: 91%
CNC(=O)C1CCN(Cc2cc3ccccc3n2Cc2cccc(C)c2)CC1 | inactive: 81%
Cc1cccc(-c2nnn3c2nc(NCc2ccccc2)c2ccccc23)c1 | inactive: 85%
O=C(Cn1ncc2c3ccccc3n(Cc3ccc(F)cc3)c2c1=O)NCc1ccccn1 | inactive: 96%
Cc1ccc(SCC(=O)Nc2ccc3oc(-c4cccc(Cl)c4)nc3c2)cc1 | inactive: 98%
CC(C)(O)/C(=C\C#N)n1c(=O)oc2ccccc21 | inactive: 101%
Cc1cc(-c2ccc(C)c(S(=O)(=O)NCC3CCN(Cc4ccccc4F)CC3)c2)on1 | inactive: 66%
CS(=O)(=O)c1ccc2sc(N)nc2c1 | inactive: 110%
O=C(NCc1ccccc1)C(=O)Nc1c2c(nn1-c1ccccc1)CSC2 | inactive: 112%
Cc1ccc(C(c2c(O)cc(C)n(Cc3ccco3)c2=O)N2CCC(C)CC2)cc1 (stereo not given) | inactive: 69%
COc1ccc(OC)c(CNCc2c(C(=O)O)n(Cc3cccc(F)c3)c3cc(OC)ccc23)c1 | active: -3%
NC(=O)CN(C1CCCCC1)S(=O)(=O)c1ccc(Br)cc1 | inactive: 104%
Cc1cc(C)cc(NC(=O)C2CC(=O)N(c3ccccc3)C2)c1 (stereo not given) | inactive: 66%
Cc1ccccc1CCNC(=O)c1ccc2c(c1)nc1n2CCCCC1 | inactive: 84%
Cc1cccc(-c2nc(CN3CCCC(C(=O)NCCc4ccc(Cl)cc4)C3)c(C)o2)c1 (stereo not given) | inactive: 29%
O=C(CCn1c(=O)c2sccc2n(Cc2ccc(F)cc2Cl)c1=O)NCc1ccc2c(c1)OCO2 | inactive: 92%
O=C(Nc1sc2c(c1C(=O)NCC1CCCO1)CCCC2)c1cc(=O)c2ccccc2o1 (stereo not given) | inactive: 80%

SMILES | survival
Cc1ccc(-c2nc3ccccc3o2)cc1NC(=O)Cc1ccc(Cl)cc1 | inactive: 78%
CCOC(=O)c1cccc(NC(=O)c2cnc3sc(N4CCOCC4)nn3c2=O)c1 | inactive: 97%
Cc1ccc(-c2cc(C(=O)Oc3ccc(C#N)cc3)no2)cc1C | inactive: 82%
Cc1ccc2c(c1)c1c(c(=O)n(Cc3ccccc3)c(=O)n1CC(=O)Nc1ccccc1F)n2C | inactive: 70%
COCCNC(=O)CCCn1c(SCC(=O)NCc2ccc(C)cc2)nc2c(sc3ccccc32)c1=O | inactive: 89%
CCC(C)NC(=O)c1sc2nc(C)c(C(=O)Nc3ccc(C)cc3C)c(-c3ccc(NC(C)=O)cc3)c2c1N (stereo not given) | inactive: 72%
O=C(O)c1ccc(Cn2c(SCc3ccc(F)cc3)nc3ccncc32)cc1 | inactive: 78%
Cc1ccc2nc(NC(=O)CSc3nccn3Cc3ccc(F)cc3)sc2c1 | inactive: 80%
COCCNc1ccc2cc(S(=O)(=O)N3CCCCC3)ccc2n1 | inactive: 56%
Cc1nc2ncccn2c1-c1csc(NCc2ccco2)n1 | inactive: 101%
CC(C)NC(=O)CN1C(=O)CCn2nc(-c3cn(C)c4ccccc34)cc21 | inactive: 73%
COc1ccc(Cn2c(C(=O)O)c(CNCc3ccc(SC)cc3)c3ccc(OC)cc32)cc1 | inactive: 73%
Cc1ccccc1OCCn1cc(/C=C(\C#N)C(=O)NC2CC2)c2ccccc21 | inactive: 82%
CCc1ccc(NS(=O)(=O)c2[nH]ncc2C(=O)OC)cc1 | inactive: 63%
Cc1ccccc1Cn1c(=O)n(-c2ccc(Cl)cc2)c(=O)c2c3c(sc21)CCCC3 | inactive: 99%
Cc1ccccc1NC(=O)c1sc2nc3c(cc2c1N)CN(Cc1ccccc1)CC3 | inactive: 82%
CCCS(=O)(=O)N1CCC(C(=O)NCCOC)CC1 | inactive: 76%
Cc1cc(F)ccc1NC(=O)C1CCC(CNS(=O)(=O)c2ccc3c(c2)CCCC(=O)N3)CC1 (stereo not given) | inactive: 77%
COc1ccc(OC)c(S(=O)(=O)NCC(c2cccs2)S(=O)(=O)c2ccc(F)cc2)c1 (stereo not given) | inactive: 124%
COc1cccc(N2CCN(C(=O)CN3CCSc4ccccc43)CC2)c1 | inactive: 59%
COc1ccccc1CNc1ncnc2c1cnn2-c1ccc(C)cc1 | inactive: 66%
O=C(c1cc2c(=O)oc3ccccc3c2s1)N1CCN(c2ccccc2)CC1 | inactive: 144%
COc1ccc2c(c1)c1c(c(=O)n(-c3cccc(C)c3)c(=O)n1Cc1cccc(Cl)c1)n2C | inactive: 72%

SMILES | survival
Cc1ccc(-n2nc(C)c3c(C)cc(=O)n(CC(=O)Nc4cccc(C)c4C)c32)cc1 | inactive: 124%
O=C(Nc1cc2c(cc1C(=O)c1ccccc1Br)OCCO2)c1cccc(Cl)c1 | inactive: 71%
Cc1ccc(-c2noc(-c3nnn(-c4cccc(C(F)(F)F)c4)c3N)n2)cc1 | inactive: 96%
COc1ccc(C(C(=O)NC2CCCCC2)N(Cc2ccc3c(c2)OCO3)C(=O)c2cnccn2)cc1OC (stereo not given) | inactive: 89%
COc1ccc(-c2nn(-c3ccccc3)cc2C2NC(=O)NC(C)=C2C(=O)OC(C)C)cc1OC (stereo not given) | inactive: 73%
O=S(=O)(c1ccc2nc(N3CCN(c4ccccc4F)CC3)ccc2c1)N1CCCCC1 | inactive: 111%
COc1ccc(N2C(=O)CSC23C(=O)N(Cc2cccc(F)c2)c2ccccc23)cc1Cl (stereo not given) | inactive: 92%
Cc1nc(-n2nc(C)c(CCC(C)C)c2C)sc1C(=O)Nc1ccc(Cl)cc1 | inactive: 89%
Cc1ccc(NC(=O)c2ccc(=O)n(Cc3ccccc3C)c2)c(C)c1 | inactive: 78%
CCOC(=O)c1c(S(=O)(=O)N2CCCC(C(=O)NCc3ccccc3OC)C2)c(C)n(C)c1C (stereo not given) | inactive: 105%
CCc1nc(SC)ncc1C(=O)N1CCN(c2cc(C)ccc2C)CC1 | inactive: 79%
Cc1ccc(CN2CCCn3nc(C(=O)NCCc4cccc(C)c4)cc3C2=O)cc1 | inactive: 77%
COC(=O)c1cnn2c(C(F)(F)F)cc(-c3ccccc3)nc12 | inactive: 93%
CCc1ccccc1NC(=O)CSc1nc2c(oc3ccccc32)c(=O)n1C | inactive: 88%
NC(=O)C1CCN(S(=O)(=O)c2ccc(N3CCCCS3(=O)=O)cc2)CC1 | inactive: 135%
Cc1ccc(-c2nc(N3CCCC(C)C3)c3ccccc3n2)cc1 (stereo not given) | active: -2%
COc1ccc(CCNCc2ccc3c(c2)n(C)c(=O)n3C)cc1OC | inactive: 111%
Cc1ccc(CNC(=O)c2ccc3c(O)c(S(=O)(=O)c4ccc(Cl)cc4)c(=O)[nH]c3c2)cc1 | inactive: 86%
COc1cccc(CNC(=O)C2CCCN(c3nc4ccccc4n4cccc34)C2)c1 (stereo not given) | inactive: 77%
Cc1nn(C)c2c1c(-c1ccccc1)cc(=O)n2CC(=O)NC(C)C | inactive: 70%
Cc1ccc(CN2CCCn3nc(C(=O)NCCc4ccccc4Cl)cc3C2=O)cc1 | inactive: 65%
Cc1ccc(C(=O)Nc2cccc(C(=O)OCc3cc(=O)n4nc(C5CC5)sc4n3)c2)cc1 | inactive: 55%
Clc1ccc(Nc2c(-c3ccccc3Cl)nc3ccc(Cl)cn23)cc1 | inactive: 25%

SMILES | survival
Cc1nc(NCCCCCO)c2nnn(Cc3ccc(F)cc3)c2n1 | inactive: 99%
COc1ccc(C)cc1NC(=O)c1cc(S(=O)(=O)N2CCN(c3cccc(C)c3C)CC2)ccc1F | inactive: 153%
CCOc1ccc(N2CC(NC(=O)C3CC3)CC2=O)cc1 (stereo not given) | inactive: 66%
O=S(=O)(NC1CC2CCC1C2)c1ccc2c(c1)OCCO2 (stereo not given) | inactive: 125%
COc1ccc(-n2nc(C(=O)NCc3ccc(F)cc3Cl)c3c4ccccc4n(C)c3c2=O)cc1Cl | inactive: 80%
COCC(C)Nc1ncnc2c1cnn2-c1ccc(C)c(C)c1 (stereo not given) | inactive: 59%
CCCOc1ccc(C2CC(=O)Nc3c2c(=O)n(C)c(=O)n3C)cc1OC (stereo not given) | inactive: 84%
O=C(CNC(=O)c1cccs1)c1ccc(F)cc1 | inactive: 112%
O=CN(Cc1ccco1)C1(C(=O)NC2CCCCC2)CCCCC1 | inactive: 101%
CCCCN(CC)CCCNC(=O)Cn1ncc2c3ccccc3n(Cc3ccc(F)cc3)c2c1=O | inactive: 81%
CC(NC(=O)c1ccc2c(c1)sc1nc(-c3ccccc3)cn12)C12CC3CC(CC(C3)C1)C2 (stereo not given) | inactive: 81%
Cn1c(=O)c(=O)n(C)c2cc(S(=O)(=O)N3CCN(c4ccccc4)CC3)ccc21 | inactive: 78%
O=C(Nc1ccc2nc(-c3ccccc3)[nH]c2c1)c1ccco1 | active: 1%
Cc1cccc(C(=O)Oc2c(Sc3ccccc3)c(C)nn2C(C)(C)C)c1 | inactive: 63%
COc1ccc(Nc2c3c(nc4nncn24)CCC3)cc1OC | inactive: 85%
Cc1ccc(Nc2ncccc2C(=O)NC2CCCCC2)cc1 | inactive: 110%
COc1ccc(S(=O)(=O)NCc2nc3nc(C)cc(C)n3n2)cc1OC | inactive: 82%
COc1ccc(CNC(=O)CSc2c3c(nc4ccc(Cl)cc24)CCCC3)cc1 | inactive: 76%
CCc1nn(CC(=O)Nc2ccc(NC(C)=O)cc2)c(=O)c2cc3sccc3n12 | inactive: 86%
O=C(CN(Cc1ccccc1Cl)C(=O)c1ccc(CN2CCOCC2)o1)NCc1ccccc1 | inactive: 115%
NC(Cc1ccc2nonc2c1)C(=O)O (stereo not given) | inactive: 102%

— PubChem BioAssay AID463173 (ICCB-Longwood Screening Facility, Harvard Medical School, 2010)
